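How tested: cells in 96-well plates exposed to compound for 48 hours at five concentrations. GI50 = concentration required for 50% inhibition of growth.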 Active and inactive are the calls of the source. Rule as the data show it: active = GI50 up to about 1.1 µM and inactive = higher.
The compounds below were run on NCI-H322M (assay: NCI-60 cell line screen, 48 h).
C/C(=N\O)c1cccc(Nc2c3ccccc3nc3occc23)c1 was tested, and the GI50 was inactive: 24.9 µM. With CCCCOC(=O)C(=O)C(CCC(=O)c1ccc(C)cc1)C(=O)C=C(C)C (centres undefined) the GI50 was inactive: > 100 µM. COc1cc(C2c3cc4c(cc3[C@@H](Nc3ccc(N)cc3)C3COC(=O)[C@H]23)OCO4)cc(OC)c1O (some centres undefined) was tested, and the GI50 was inactive: 8.32 µM. With SCc1ccc(-c2ccc(CS)cc2)cc1 the GI50 was inactive: 6.05 µM. In the case of CN(C)CCNc1ccc2ncn3c4ccccc4c(=O)c1c23, the GI50 is reported as inactive: 1.98 µM. For N#CCN1CCN(CC#N)CCN(CC#N)CCN(CC#N)CC1, the GI50 was inactive: > 100 µM. With C[N+](C)(C)C(Cc1c[nH]c(=S)[nH]1)C(=O)O (centres undefined) the GI50 was inactive: > 100 µM. In the case of c1csc(-c2cscc2-c2cccs2)c1, the GI50 is reported as inactive: 54.3 µM. O=[N+]([O-])/C(C(Cl)=C(Cl)Cl)=C(\Nc1cccc2ccccc12)Sc1ccccc1 was tested, and the GI50 was inactive: 19.8 µM. For Cc1cc(CCC(=O)NCCNc2c3ccccc3nc3ccccc23)cc(C)c1O[Si](C)(C)C(C)(C)C, the GI50 was inactive: 1.69 µM. O=C(O)c1ccccc1C(=O)c1ccc2c(c1)Cc1ccccc1-2 was tested, and the GI50 was inactive: 95.5 µM. For CCOC(=O)c1c[nH]c(C(=O)C=[N+]=[N-])c1C1CCN(CC)C1=S (centres undefined), the GI50 was inactive: > 100 µM. For O=C(OCCN=C1c2ccccc2CCc2ccccc21)c1cc([N+](=O)[O-])cc([N+](=O)[O-])c1, the GI50 was inactive: > 10 µM. With CC(C)=CCC/C(C)=C/Cc1c(O)c(C)cc2c1[nH]c1cc(O)ccc12 the GI50 was inactive: > 25 µM. COc1ccc(CCn2cnc3ccccc32)cc1 was tested, and the GI50 was inactive: > 100 µM. With C[C@H]1[C@H](C)CC[C@]2(C(=O)OC3OC(CO)C(O)C(O)C3O)CC[C@]3(C)C(=CC[C@@H]4[C@@]5(C)C[C@@H](O)[C@@H]6OC(=O)c7cc(O)c(O)c(O)c7-c7c(cc(O)c(O)c7O)C(=O)OC[C@]6(CO)[C@@H]5CC[C@]43C)[C@H]12 (some centres undefined) the GI50 was inactive: 14.1 µM. With COC(=O)C1=COC(C)C2CN3CCc4c([nH]c5cc(OC)c(OC)cc45)C3CC12 (centres undefined) the GI50 was inactive: > 100 µM. In the case of CCC1=CCN(c2cc(C)ccn2)OC1c1ccccc1 (centres undefined), the GI50 is reported as inactive: 61 µM. With CN(C)C(=S)N/N=C(\C(=N/NC(=S)N(C)C)c1ccccn1)c1ccccn1 the GI50 was inactive: 5.52 µM. C=CC(C)(C)n1cc(C2=C(O)C(=O)C(c3c(CC=C(C)C)[nH]c4ccccc34)=C(O)C2=O)c2ccccc21 was tested, and the GI50 was inactive: 1.98 µM. For N#Cc1ccc(Oc2nc3ccccc3nc2C(=O)O)cc1, the GI50 was inactive: > 100 µM. In the case of Cc1nc2c(=S)n(C)ncc2[nH]1, the GI50 is reported as inactive: > 100 µM. With CN(c1c(Cl)cccc1Cl)S(=O)(=O)c1ccccc1[N+](=O)[O-] the GI50 was inactive: > 100 µM. c1ccc(-c2csc3c2-n2cccc2C3N2CCCC2)cc1 (centres undefined) was tested, and the GI50 was inactive: > 100 µM. With CCOC(CNCCC(=O)OC)OCC the GI50 was inactive: > 10 µM. For CNc1nncc2[nH]cnc12, the GI50 was inactive: > 100 µM. For Oc1[nH]c(Nc2ccc(Cl)cc2)nc2ncnc1-2, the GI50 was inactive: 62.2 µM. For CO[C@@H]1[C@H](O)CC[C@]2(CO2)[C@H]1[C@@]1(C)O[C@@H]1CC=C(C)C, the GI50 was inactive: 44.1 µM. For Oc1cc(-c2cccc(F)c2)nc2cc3c(cc12)OCO3, the GI50 was active: 0.118 µM. With CC1C2CC(CC2N)C1(C)C (centres undefined) the GI50 was inactive: > 100 µM. CCN(C(=N)C#N)c1ccccc1 was tested, and the GI50 was inactive: > 100 µM. COc1ccc(-c2oc(/C=N/c3ccccc3)c([N+](=O)[O-])c2-c2ccc(OC)c(OC)c2)cc1OC was tested, and the GI50 was inactive: > 100 µM. With CC(=O)N1CC(=O)N2C(=O)/C(=C/c3ccc(Cl)cc3)N=C12 the GI50 was inactive: > 100 µM. COc1cnc2cc(C(=O)O)c3ccccc3c2c1 was tested, and the GI50 was inactive: > 100 µM. CN(C)c1ccc(/C=C2\C[C@H]3[C@@H]4CC=C5C[C@@H](O)CC[C@]5(C)[C@H]4CC[C@]3(C)[C@H]2O)cc1 was tested, and the GI50 was inactive: 12.5 µM. For CCCCCCCCCCCCCCC(C)CCC(=O)O (centres undefined), the GI50 was inactive: 82.2 µM. Cc1cc(-c2[nH]c(C(=O)O)cc2I)on1 was tested, and the GI50 was inactive: 43.4 µM. In the case of O=C(OC1CCC2OOC1O2)c1ccc([N+](=O)[O-])cc1 (centres undefined), the GI50 is reported as inactive: > 100 µM. For Cc1cc(S(=O)(=O)Nc2nc(Nc3ccc(Cl)cc3)n[nH]2)c(S)cc1Cl, the GI50 was inactive: > 100 µM. CC(=O)N(CN1C(=O)CCC1C(=O)O)c1cccc(O)c1 (centres undefined) was tested, and the GI50 was inactive: > 100 µM. In the case of COc1ccc(OC)c2c(=O)cc(-c3ccccc3)[nH]c12, the GI50 is reported as inactive: > 100 µM. For N=C(N)N/N=C\c1ccc(C2CCNCC2)cc1, the GI50 was inactive: > 100 µM. For CCNC(=S)NNC(=O)c1nsc2ccccc12, the GI50 was inactive: 71.3 µM. CCOC(=O)Cn1nc2ccc(Nc3nc4ccccc4nc3C(=O)OCC)cc2n1 was tested, and the GI50 was inactive: 92.9 µM. With CC(=O)NS(=O)(=O)c1ccc(NCc2cccc3c(=O)c4ccc(Cl)cc4oc23)cc1 the GI50 was inactive: 68.5 µM. For O=C(O)CSc1nc2ccccc2[nH]1, the GI50 was inactive: > 100 µM. In the case of C[C@@]1(OC(=O)c2cc([N+](=O)[O-])cc([N+](=O)[O-])c2)C[C@@H]2CCCC[C@@H]21, the GI50 is reported as inactive: > 100 µM. In the case of COc1ccc(C(=O)C(C(=O)C(=O)Nc2ccc(Cl)c(Cl)c2)c2ccc(OC)cc2)cc1 (centres undefined), the GI50 is reported as inactive: > 100 µM. O=CN1CCN(C(=O)c2ccc(Cl)c(Cl)c2)C1=S was tested, and the GI50 was inactive: 16.8 µM. With CCN1C(C)=NC2C(=O)c3ccccc3C(=O)C21 (centres undefined) the GI50 was inactive: 87.5 µM. For O=C(Nc1ccc2[nH]c(C(=O)N3CC(CCl)c4c3cc([N+](=O)[O-])c3ccccc43)cc2c1)c1cc2ccccc2o1 (centres undefined), the GI50 was inactive: > 100 µM. CCNC(=O)/C(=C/c1ccc(OC)cc1)c1cc(OC)c(OC)c(OC)c1 was tested, and the GI50 was inactive: 27.5 µM. In the case of Cc1cc(Cl)ccc1Nc1nc2c(s1)C(=O)c1ccccc1C2=O, the GI50 is reported as inactive: 4.42 µM. In the case of c1ccc2c(CNCCCCCCCCCCCCNCc3cccc4ccccc34)cccc2c1, the GI50 is reported as inactive: 1.79 µM. With Cc1ccc(S(=O)(=O)n2cc(-c3cc(C(F)(F)F)ccn3)c3cc(Br)ccc32)cc1 the GI50 was inactive: 17.3 µM. In the case of COc1ccc2[nH]cc(CN3CCC(CO)(c4ccccc4)CC3)c2c1, the GI50 is reported as inactive: 44.5 µM. For CCOC(=O)/C=C(\C(=O)OCC)n1ccc(=O)n(Cc2cn(CCCCOC(C)=O)nn2)c1=O, the GI50 was inactive: 19.5 µM. With OC1CC2CCCN(CCc3c1[nH]c1ccccc31)C2 (centres undefined) the GI50 was inactive: > 100 µM. With CSCCC(NC(c1ccccc1)c1ccccc1)[PH](=O)O (centres undefined) the GI50 was inactive: > 100 µM. With C=C/C=C/NC(=O)OCc1ccccc1 the GI50 was inactive: > 100 µM. O=C(Nc1ccc(Cl)c(C(F)(F)F)c1)C(=O)C(C(=O)/C=C/c1ccccc1)C1OC(=O)c2ccccc21 (centres undefined) was tested, and the GI50 was inactive: > 100 µM. In the case of COc1ccc2cc(CNCCCCCCNCc3ccc4cc(OC)ccc4c3)ccc2c1, the GI50 is reported as active: 0.774 µM. For Cc1nn2c(=O)c([N+](=O)[O-])c(/C=C/c3ccco3)nc2s1, the GI50 was inactive: 55.5 µM. For CN(C)/N=N/c1nc2c(c(=O)n(C)c(=O)n2C)n1CC1CO1 (centres undefined), the GI50 was inactive: 17.3 µM. Cc1[nH]c2ccccc2c1C1=NO/C(=N\O)C(c2c(C)[nH]c3ccccc23)C1 (centres undefined) was tested, and the GI50 was inactive: > 74.1 µM. For CCCCn1c(-c2ccc([N+](=O)[O-])cc2)cs/c1=N/N=C1\C(=O)Nc2ccc(Br)cc21, the GI50 was inactive: 29.1 µM. O=[N+]([O-])/C=C/COCc1cc2c(cc1Br)OCO2 was tested, and the GI50 was inactive: > 100 µM. In the case of Nc1nc(N)c2nc(-c3ccco3)cnc2n1, the GI50 is reported as inactive: 37.9 µM. With CC1(C)CC(=O)C(=CNc2nc(-c3ccccc3)cs2)C(=O)C1 the GI50 was inactive: > 100 µM. COC1[C@H](NC(=O)OC(C)(C)C)C(=O)N1Cc1ccccc1 (some centres undefined) was tested, and the GI50 was inactive: > 100 µM. With NNC(=O)Nc1cccnc1 the GI50 was inactive: > 100 µM. With COC(C/C(=C/CO[Si](C(C)C)(C(C)C)C(C)C)C(=O)N(COCC[Si](C)(C)C)c1ccccc1I)OC the GI50 was inactive: 59.7 µM. For Cc1[nH]c(=O)nc(NCCNCCO)c1C(=O)Nc1c2ccccc2nc2ccccc12, the GI50 was inactive: > 100 µM. For ClCCN(CCCl)c1ccc(CNCCCNCc2ccc(N(CCCl)CCCl)cc2)cc1, the GI50 was inactive: 3.87 µM. CS(=O)(=O)N(CCC#N)c1ccc(/C=C2\N=C(c3ccccc3Cl)OC2=O)cc1 was tested, and the GI50 was inactive: > 100 µM. With O=C1CSC(=O)/C1=C\NNc1nc2ccccc2o1 the GI50 was inactive: 25.6 µM. COC(=O)C(=O)Nc1cc2c3c(c1)Oc1cccc4c1C3(C)c1c(cccc1O2)O4 was tested, and the GI50 was inactive: > 100 µM. COc1cccc(NC(=S)Nn2c(C)nc3ccccc3c2=O)c1 was tested, and the GI50 was inactive: > 100 µM. In the case of CC(C)OC(=O)[C@H]1ON2O[C@H](O[C@@H]3CCCC[C@H]3c3ccccc3)C([Si](C)(C)c3ccccc3)[C@H]3OC(=O)[C@@H]1C32 (some centres undefined), the GI50 is reported as inactive: > 100 µM. For CC(C)(C)NCCC(O)c1cc(C(F)(F)F)nc2c(C(F)(F)F)cccc12 (centres undefined), the GI50 was inactive: 12.4 µM. O=C1C(CO)=C(CO)C(=O)c2c(O)ccc(O)c21 was tested, and the GI50 was inactive: 1.62 µM. With CCCNC(=O)Nc1c([N+](=O)[O-])cc(C(F)(F)F)cc1[N+](=O)[O-] the GI50 was inactive: > 100 µM. In the case of O=c1oc2cc(O)ccc2c2[nH]c3cc(O)ccc3c12, the GI50 is reported as inactive: 25.2 µM. For CC1CC(=O)Nc2ccccc2N1C(=O)C1CC1 (centres undefined), the GI50 was inactive: > 100 µM. O=C(Cn1c(=O)oc2ccc(C(=O)c3ccc(F)cc3)cc21)c1ccccc1 was tested, and the GI50 was inactive: > 100 µM. For CC(C(=O)c1ccc(Cl)cc1)C1OC(=O)C(Cl)=C1Cl (centres undefined), the GI50 was inactive: > 100 µM. CCN(CC)c1ccc2cc(C(=O)Nc3ccccn3)c(=N)oc2c1 was tested, and the GI50 was inactive: > 100 µM. In the case of CCOC(=O)C(c1ccsc1)P(=O)(OCC)OCC (centres undefined), the GI50 is reported as inactive: 17.3 µM. In the case of CCCCCCCCCCCCC(=O)NCC(=O)NC(Cc1ccccc1)C(=O)Oc1ccc([N+](=O)[O-])cc1 (centres undefined), the GI50 is reported as inactive: 72.8 µM. For Nc1nc(N)c(CCCCc2ccccc2)c(/C=C/c2ccc([N+](=O)[O-])cc2)n1, the GI50 was inactive: 4.78 µM. With CCOC(=O)C(C)c1nc2cc3cccnc3c(Cl)c2[nH]c1=O (centres undefined) the GI50 was inactive: > 100 µM. For COc1ccc(-c2nc3cc(C(F)(F)F)ccc3n2CC2CCCN3CCCCC23)cc1 (centres undefined), the GI50 was inactive: 16.6 µM. In the case of S=C(Nc1c2c(nc3ccccc13)CCCC2)Nc1c2c(nc3ccccc13)CCCC2, the GI50 is reported as inactive: > 100 µM. In the case of COc1ccc(/N=c2/[nH]c(N)c(C(=O)c3ccc(OC)cc3)s2)cc1, the GI50 is reported as active: 0.668 µM.

Reference: ChEMBL document CHEMBL1201862, “PubChem BioAssay data set” (2004)
